Assay results taken from paper PMC4336329 (PLoS ONE, 2015).
The campaign covered roughly 310,000 compounds. About 14,000 (4.5%) showed an effect of 50% or more. Effects have a minus sign here. This is one part of the list. Where a SMILES comes first, the peptide text is derived from it. The star is where a group is joined. Boc = CC(C)(C)OC(=O)*

Molecular target: human ether-à-go-go-related gene (hERG) potassium channel (human, UniProt Q12809)
Assay: primary screen, population patch clamp on CHO cells stably expressing hERG
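Also: peak tail current of the secondary pulse compared with the same well before compound.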

Sequence of human ether-à-go-go-related gene (hERG) potassium channel (Q12809 whole entry, looked up): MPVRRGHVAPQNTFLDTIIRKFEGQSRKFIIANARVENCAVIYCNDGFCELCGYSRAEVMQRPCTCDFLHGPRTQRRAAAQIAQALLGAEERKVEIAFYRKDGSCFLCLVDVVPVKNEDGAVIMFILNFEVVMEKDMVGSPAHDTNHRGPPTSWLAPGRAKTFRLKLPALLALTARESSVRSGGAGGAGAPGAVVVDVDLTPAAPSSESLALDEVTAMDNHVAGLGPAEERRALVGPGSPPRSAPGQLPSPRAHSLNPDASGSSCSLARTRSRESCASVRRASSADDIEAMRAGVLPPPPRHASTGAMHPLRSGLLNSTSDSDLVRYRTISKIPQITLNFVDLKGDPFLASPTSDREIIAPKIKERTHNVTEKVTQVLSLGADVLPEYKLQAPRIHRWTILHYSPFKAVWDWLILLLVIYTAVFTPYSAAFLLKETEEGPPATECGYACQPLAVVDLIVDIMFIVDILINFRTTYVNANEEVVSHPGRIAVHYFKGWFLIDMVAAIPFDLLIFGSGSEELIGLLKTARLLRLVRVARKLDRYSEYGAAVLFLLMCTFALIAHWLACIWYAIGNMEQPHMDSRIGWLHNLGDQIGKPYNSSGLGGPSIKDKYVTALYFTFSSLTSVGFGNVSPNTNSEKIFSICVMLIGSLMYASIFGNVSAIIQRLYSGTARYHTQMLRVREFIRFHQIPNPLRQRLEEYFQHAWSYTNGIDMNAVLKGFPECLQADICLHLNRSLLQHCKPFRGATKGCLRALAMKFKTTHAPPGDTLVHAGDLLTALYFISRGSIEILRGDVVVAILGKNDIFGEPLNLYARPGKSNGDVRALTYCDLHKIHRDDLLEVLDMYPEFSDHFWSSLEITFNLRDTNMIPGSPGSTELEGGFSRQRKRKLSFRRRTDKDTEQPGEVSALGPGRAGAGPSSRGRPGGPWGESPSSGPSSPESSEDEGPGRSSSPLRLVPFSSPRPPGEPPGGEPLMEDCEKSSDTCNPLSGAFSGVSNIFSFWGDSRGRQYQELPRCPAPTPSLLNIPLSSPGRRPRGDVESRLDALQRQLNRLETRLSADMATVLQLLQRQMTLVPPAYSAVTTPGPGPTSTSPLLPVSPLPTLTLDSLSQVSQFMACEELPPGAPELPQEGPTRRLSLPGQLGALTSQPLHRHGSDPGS

| SMILES | hERG current change (%, negative = inhibition) at 10uM [%] |
| --- | --- |
| CC(C)CC(NC(=O)OC(C)(C)C)C(=O)NC(C(=O)N1CCCC1C(N)=O)C(C)C (stereo not drawn) (Boc-Leu-Val-Pro-NH2; configuration not given here) | -2.48 |
| CN(C)C(=O)CSc1nc2ccccc2n1CC(=O)N1CCN(c2ccccc2)CC1 | -4.54 |
| N#Cc1ccc(CN2C(=O)NC3(CCCCCC3)C2=O)cc1 | -32.2 |
| O=C(Nc1cccc(S(=O)(=O)NC2=NCCCCC2)c1)c1cccnc1Cl | 10.9 |
| O=C(Nc1ccc(Br)cc1Cl)Nn1cnnc1 | -5.52 |
| CC(C)(C)n1nc2c(c1NC(=O)c1c(F)cccc1F)CS(=O)(=O)C2 | 8.85 |
| Fc1ccc(-c2csc3ncnc(N4CCN(c5ccccc5)CC4)c23)cc1 | 16.2 |
| Cc1ccc(CNC(=O)/C(C#N)=C/c2ccc(C)s2)cc1 | 7.38 |
| COc1ccc(OCC(=O)N2CCC(n3nccc3NC(=O)C3CC3)CC2)cc1 | 1.44 |
| COc1cc(NC(=O)CN2C(=O)NC(c3ccccc3)(c3ccccc3)C2=O)cc(OC)c1 | 5.79 |
| O=C(CN1CCN(C(=O)c2ccco2)CC1)Nc1ccc(Cl)c(S(=O)(=O)N2CCOCC2)c1 | -25.6 |
| CC(C)COc1cccc(C(=O)N2CCN(C(=O)c3ccco3)CC2)c1 | -43.6 |
| Cl.OC(COc1ccc2c(c1)OCO2)CN1CCN(c2ccc(F)cc2)CC1 (centres unmarked) | -66.1 |
| O=C(CCNC(=O)c1ccccc1Cl)Nc1nc2ccccc2s1 | 1.57 |
| COc1ccc(/C=N/NC(=O)c2cc(C)on2)c2ccccc12 | 1.7 |
| Cc1cc2c(sc3ccccc32)c(C)n1.Cl | -11.3 |
| Cc1cc(C)c(S(=O)(=O)NCC(c2cccnc2)N2CCN(Cc3ccccc3)CC2)c(C)c1 (centres unmarked) | -69.5 |
| CCCCn1c(N)c(N(CCOC)C(=O)c2cc(-c3ccccc3)nc3ccccc23)c(=O)[nH]c1=O | -3.37 |
| CCNc1nc(SCC(=O)OC)nc(N(C)C)n1 | -1.26 |
| Cc1ccc(S(=O)(=O)Nc2ccc3c(c2)nc(CCN2CCOCC2)n3C)cc1 | -17.2 |
| Cc1ccc(CNC(=O)NC23CC4CC(CC(C4)C2)C3)cc1 | 7.24 |
| NS(=O)(=O)c1ccc(CCNC(=O)CNC(=O)COc2ccccc2)cc1 | 15.7 |

| SMILES | hERG current change (%, negative = inhibition) at 10uM [%] |
| --- | --- |
| CN1CCN(S(=O)(=O)c2cccc(C(=O)Oc3cccc(Br)c3)c2)CC1 | -26.9 |
| CN(C)/C=N/c1nc2nccc(-c3cccnc3)n2n1 | -2.98 |
| C/C(=N/OC(=O)C1CC1)c1cc(-c2ccc(Cl)cc2)no1 | 10.7 |
| CC(=O)c1ccc(N2CCN(C(=O)c3ccc(Cn4c(=S)[nH]c5ccc(N6CCOCC6)cc5c4=O)cc3)CC2)cc1 | 3.26 |
| COc1ccc(C(=O)COC(=O)Cn2nnc3ccccc32)cc1Br | -2.3 |
| CCOC(=O)/C(Sc1nc(-c2ccccc2)cc(-c2ccccc2)c1C#N)=C(\C)O | 15 |
| COc1cc2c(c(OC)c1OC)CC(=O)N(C)CC2 | 5.56 |
| O=C(CN1C(=O)CSc2ccccc21)N1CCc2ccccc21 | 1.76 |
| CCOc1ccc(-c2nnn(CCC(=O)O)n2)cc1OC | 6.95 |
| CCOc1ccccc1Nc1nc2ccccc2n2cnnc12 | 8.87 |
| C#CCSc1nnc(-c2sc(-c3ccccc3)nc2C)n1C | -26.9 |
| COc1cc(CN(C)CCc2ccccc2)ccc1OCc1ccccc1 | -72 |
| COc1ccc(C2CC(=O)CC(=O)C2n2cncn2)cc1 (centres unmarked) | 2.96 |
| COc1ccc(N2CCN(C(=O)Cn3nnc(-c4cccs4)n3)CC2)cc1 | 13 |
| CC(=O)NC1C(Oc2ccccc2C)OC2COC(c3ccco3)OC2C1O (centres unmarked) | 3.59 |
| CCOC(=O)[C@@H]1[C@H]2COc3ccccc3[C@@H]2N2C(=O)N(c3cccc(Cl)c3)C(=O)[C@@]12C | -3.18 |
| Cc1cccc(-n2nc(C)c3c(C(=O)O)cc(-c4cccs4)nc32)c1 | 9.13 |
| Cc1ccc(OC(=O)c2cncc(Br)c2)c(C)c1 | 16 |
| C=CCNC(=O)c1oc2ccc(S(=O)(=O)N(CC)CC)cc2c1C | -8.87 |
| O=C(N/N=C/c1ccc(Br)o1)c1ccc2c(c1)OCCO2 | -8.89 |
| Cc1onc(-c2c(F)cccc2Cl)c1C(=O)N1CCN(S(C)(=O)=O)CC1 | -0.786 |
| O=C1C(C2=NC(c3ccccn3)C3C(=O)N(c4ccc(Cl)cc4Cl)C(=O)C23)=C(O)c2ccccc21 (centres unmarked) | -4.11 |

| SMILES | hERG current change (%, negative = inhibition) at 10uM [%] |
| --- | --- |
| COc1ccccc1CNC(=O)CCC(=O)N1CC(C)Sc2ccccc21 (centres unmarked) | -11.9 |
| O=C(NC(=S)NCc1ccco1)c1cccc(Cl)c1 | 5.4 |
| O=C(NCc1ccccc1Cl)C(=O)NCC1OCCN1S(=O)(=O)c1cccs1 (centres unmarked) | -15 |
| Cc1ncc([N+](=O)[O-])n1S(=O)(=O)c1cc(Br)ccc1Br | 14 |
| Cc1cc(C(=O)OCC(=O)Nc2c(Cl)cccc2C(F)(F)F)c(C)o1 | 10.7 |
| Cc1nn(CC(=O)Nc2ccc(S(=O)(=O)N(C)C)cc2)c(C)c1[N+](=O)[O-] | -5.89 |
| COc1ccc(NC(=O)N2c3ccc(OC)cc3C(C)=CC2(C)C)cc1 | 20.1 |
| CC(=O)c1ccc(N(CC(=O)NCc2ccc3c(c2)OCO3)C(=O)c2csnn2)cc1 | -20.5 |
| CCOc1cccc(CN2CCC(Oc3ccc(C(=O)N4CCCC4)cc3)CC2)c1 | -27.4 |
| Cc1nnsc1C(=O)N/N=C/c1c(F)cccc1Cl | 12.8 |
| O=C(N/N=C/c1cccs1)c1ccc(-n2cccc2)cc1 | 21.4 |
| CC(OC(=O)/C=C/c1cccs1)C(=O)NC1CCCCC1C (centres unmarked) | 12.2 |
| COc1ccc(S(=O)(=O)NCCc2ccc(F)cc2)cc1 | -8.11 |
| O=C(O)C(=O)O.OC(CNCc1ccc(Cl)cc1)COc1ccccc1 (centres unmarked) | -41.9 |
| COc1cccc(NC(=O)CSc2nnnn2C(C)C)c1 | 2.64 |
| Cn1cccc1Cc1nnc(SCC(=O)NCC2CCCO2)n1C (centres unmarked) | 11.8 |
| CN(Cc1nccs1)C(=O)C1CCC(=O)N(CCc2ccc(Cl)cc2)C1 (centres unmarked) | -81.5 |
| Cc1cc(C(=O)CN2C(=O)NC(C)(c3cccc(Br)c3)C2=O)c(C)n1Cc1ccco1 (centres unmarked) | -10.4 |
| O=C(NCCCc1ccccc1)c1ccccc1 | -1.81 |
| CC1(C)C(=O)N(c2ccccc2F)C(=O)c2ccccc21 | 23 |
| O=C(NC(c1ccccc1)C(Cl)Cl)c1ccccc1 (centres unmarked) | 9.95 |
| COc1ccc(OC(=O)/C=C/c2ccc([N+](=O)[O-])cc2)cc1 | 17 |

| SMILES | hERG current change (%, negative = inhibition) at 10uM [%] |
| --- | --- |
| Cc1ccccc1OCCC(=O)OCC(=O)Nc1c(C)nn(-c2ccccc2)c1C | 10.4 |
| Cc1ccc(S(=O)(=O)N(C)CC(=O)OCC(=O)NC(=O)Nc2ccc3c(c2)OCCO3)cc1 | 13.7 |
| CC(=O)Nc1cccc(N(C)C)c1 | 1.98 |
| Cc1cc(N)n(-c2ccc(S(=O)(=O)N3CCOCC3)cc2[N+](=O)[O-])n1 | -25.3 |
| CCC(CC)C(=O)Nc1c(C(=O)N2CCN(c3ccccc3)CC2)oc2ccccc12 | 3.17 |
| O=C1C2C3C=CC(CNS(=O)(=O)c4ccccc4[N+](=O)[O-])(O3)C2C(=O)N1c1ccccc1 (centres unmarked) | -13.1 |
| C=CCc1cccc2cc(C(=O)NCc3cccnc3)c(=O)oc12 | -27.5 |
| O=C(c1ccc2[nH]ccc2c1)N1CCCC(Nc2ccccc2)C1 (centres unmarked) | -14.3 |
| Cc1ccsc1C(=O)OCC(=O)N1CCOCC1 | 5.45 |
| COC(=O)c1ccc(/C=C/c2c(-c3ccsc3)sc3ccccc23)cc1 | 24.4 |
| COc1ccc(C)cc1NS(=O)(=O)c1ccc(-c2cnc(C3CC3)o2)cc1 | 0.824 |
| CC(=O)c1ccc(OCC(=O)NCC(c2ccco2)N2CCCCC2)cc1 (centres unmarked) | -4.83 |
| COc1ccc(NS(=O)(=O)c2ccc(N3CCCC3)c(N)c2)cc1 | 13.8 |
| O=C(N/N=C/c1ccccc1OC(=O)c1ccc2c(c1)OCO2)c1cccc(F)c1 | 9.33 |
| C#CCNC(=O)[C@H](Cc1ccc(C(=O)c2ccccc2)cc1)NC(=O)OC(C)(C)C | 19.5 |
| CN(/N=C/c1c[nH]c2ccccc12)c1cnn(-c2ccc(F)c(Cl)c2)c(=O)c1Cl | -5.66 |
| Nc1nnc(-c2ccc(Cl)c(Cl)c2)s1 | 12.7 |
| COc1ccc(O)c(/C=C(\C#N)C(=O)Nc2cccnc2)c1 | 3.74 |
| O=C(COc1ccc2c3c(c(=O)oc2c1)CCCC3)NCCCN1CCCC1=O | -7.14 |
| CCc1ccc(NC(=O)Cc2ccc(NC3=NC4CS(=O)(=O)CC4S3)cc2)cc1 (centres unmarked) | 13.5 |
